Source: PMC4336329 (PLoS ONE, 2015)
Among all 310,000 compounds or so, about 14,000 (4.5%) showed an effect of 50% or more. The effect is printed as a negative number. Some of the results follow.

These molecules were tested against human ether-à-go-go-related gene (hERG) potassium channel (human, UniProt Q12809) (assay: primary screen, population patch clamp on CHO cells stably expressing hERG).
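Note: peak tail current of the secondary pulse compared with the same well before compound.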

Chain of human ether-à-go-go-related gene (hERG) potassium channel (Q12809 whole entry, looked up): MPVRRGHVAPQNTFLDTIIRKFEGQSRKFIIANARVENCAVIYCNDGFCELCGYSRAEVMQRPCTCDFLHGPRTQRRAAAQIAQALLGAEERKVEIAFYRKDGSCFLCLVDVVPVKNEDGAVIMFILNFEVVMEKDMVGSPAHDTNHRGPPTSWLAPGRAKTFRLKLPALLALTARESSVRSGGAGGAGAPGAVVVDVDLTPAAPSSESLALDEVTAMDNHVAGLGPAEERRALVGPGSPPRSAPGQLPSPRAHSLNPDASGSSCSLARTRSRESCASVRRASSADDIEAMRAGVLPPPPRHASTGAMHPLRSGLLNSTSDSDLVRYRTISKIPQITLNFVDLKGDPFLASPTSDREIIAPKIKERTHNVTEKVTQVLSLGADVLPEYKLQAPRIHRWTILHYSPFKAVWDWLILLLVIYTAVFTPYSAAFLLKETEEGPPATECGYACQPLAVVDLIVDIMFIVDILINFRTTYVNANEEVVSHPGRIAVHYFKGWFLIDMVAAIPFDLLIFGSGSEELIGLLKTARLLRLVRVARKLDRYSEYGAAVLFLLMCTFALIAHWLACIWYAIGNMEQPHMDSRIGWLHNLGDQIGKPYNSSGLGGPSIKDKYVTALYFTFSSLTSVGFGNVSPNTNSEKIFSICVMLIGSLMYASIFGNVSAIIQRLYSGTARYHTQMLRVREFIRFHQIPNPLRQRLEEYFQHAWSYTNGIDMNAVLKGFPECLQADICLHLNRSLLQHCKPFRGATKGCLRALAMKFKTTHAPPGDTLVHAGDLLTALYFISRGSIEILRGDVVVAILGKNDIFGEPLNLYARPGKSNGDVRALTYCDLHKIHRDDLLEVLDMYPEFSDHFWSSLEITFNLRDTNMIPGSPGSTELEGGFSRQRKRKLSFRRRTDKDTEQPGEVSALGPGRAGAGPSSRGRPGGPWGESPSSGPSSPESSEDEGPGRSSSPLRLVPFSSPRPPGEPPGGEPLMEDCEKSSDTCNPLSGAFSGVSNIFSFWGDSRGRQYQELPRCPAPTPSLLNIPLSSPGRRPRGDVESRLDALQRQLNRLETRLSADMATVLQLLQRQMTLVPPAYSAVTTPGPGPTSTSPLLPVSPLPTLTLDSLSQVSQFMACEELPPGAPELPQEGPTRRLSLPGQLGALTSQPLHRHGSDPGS

SMILES	hERG current change (%, negative = inhibition) at 10uM [%]
CC(=O)Nc1cc2c(cc1C(=O)C(C)C)OCCO2	1.33
Cc1cc(C(=O)CN2C(=O)c3ccccc3C2=O)c(C)n1Cc1cccs1	1.03
O=C(Nc1nnc(C(F)(F)F)s1)c1cccnc1	7.36
Cc1cc(C(=O)N2CCCC(N3CCN(c4cccc(C(F)(F)F)c4)CC3)C2)n[nH]1 (stereo not drawn)	-53.2
COc1cccc(N=Cc2c(O)n(-c3cccc(C)n3)c(=O)c3ccccc23)c1	-11.5
CC(C)CC(=O)Nc1ccc([N+](=O)[O-])cc1Cl	23.3
COc1ccc(N(CC(=O)Nc2ccc(C)c(C)c2)S(=O)(=O)c2c(C)n[nH]c2C)cc1	8.31
CCCCNC(=O)C1c2cc(OC)c(OC)cc2C(=O)N(C)C1c1cccs1 (stereo not drawn)	-5.73
CC(=O)N1C(=O)C2(Nc3ccccc3N2)c2ccccc21	9.28
COc1ccc(C2CC(c3cccs3)=NN2c2ccc(C=O)cc2)cc1 (stereo not drawn)	-3.68
COc1cc(C(O)c2nc3ccccc3n2C)cc(OC)c1OC (stereo not drawn)	0.332
O=C(COC(=O)CNC(=O)c1cccc([N+](=O)[O-])c1)Nc1cccc(S(=O)(=O)N2CCCC2)c1	-2.19
NC(=O)c1ccccc1OCCOCCOCCOc1ccccc1C(N)=O	-16.1
COc1ccccc1OCc1ccc(C(=O)NCC2CCCO2)o1 (stereo not drawn)	-7.04
Cc1[nH]n2c(=O)cc(Cc3ccccc3)nc2c1C#N	-7.67
Cc1ccc(CN2CCN(Cc3cn[nH]c3C3CCCCC3)CC2CCO)cc1 (stereo not drawn)	-62.9
CCN1CCN(Cc2ccc(NC(=O)c3ccc(C)c(NC(=O)N4CCNC4=O)c3)cc2C(F)(F)F)CC1	1.09
OCCc1c[nH]c2ccc(C(F)(F)F)cc12	6.01
CC(=O)N1CCc2cc(Br)cc(S(=O)(=O)NCc3ccccn3)c21	7.02
COc1ccc(Cl)cc1C(=O)NNC(=O)CSc1nnnn1C	9.95
CC(NC(=O)COc1ccc(S(=O)(=O)N2CCOCC2)cc1)c1ccccc1 (stereo not drawn)	-4.63
C/C(=N\NC(=O)Cn1nc(C)cc1C)c1ccc([N+](=O)[O-])cc1	-17.6
CCCCS/C(N)=N/N=C/c1ccccc1O	14.4

SMILES	hERG current change (%, negative = inhibition) at 10uM [%]
COC(=O)/C(=C(/F)SCC(C)=O)C(F)(F)F	5.79
O=C(CCC1CCCN(C(=O)c2cccs2)C1)N1CCN(c2ccccn2)CC1 (stereo not drawn)	-23.6
O=S(=O)(c1cc(C(F)(F)F)ccc1Cl)N1CCN(c2ccccn2)CC1	-26.3
Cc1ccc(OCCCC(=O)N2CCN(S(=O)(=O)c3cccc(F)c3)CC2)cc1	-9
Fc1ccccc1CN1CCCN(C(=S)Nc2cccc(Cl)c2)C1	-22.8
COc1ccccc1N(CC1CO1)S(=O)(=O)c1ccccc1 (stereo not drawn)	-6.08
CCCNC(=O)COc1ccc(-c2nn(C)c(=O)c3ccccc23)cc1	4.95
Cc1ccc2nc(SCC(=O)NNC(=O)c3ccccc3)[nH]c2c1	-4.55
CCCS(=O)(=O)N1CCCC(C(=O)NC(C)c2ccc3c(c2)OCCO3)C1 (stereo not drawn)	9.55
Cc1ccc(-c2nnn(CC(=O)N3CCC(C)CC3)n2)o1	12.7
CCOC(=O)Cc1nnc(NC(=O)CSc2ccc(C)cc2)s1	12.6
CC1CCN(C(=O)C(=O)c2cn(CC(=O)N3CCCC3)c3ccccc23)CC1	22.2
CCOCCCNC(=O)C(NC(=O)c1ccc2c(c1)OCO2)c1ccccc1 (stereo not drawn)	15
COc1ccc(CN2C(=O)C(C)Oc3ccccc32)cc1 (stereo not drawn)	-7.81
Cc1ccc(C(=O)N2CCN(c3ncnc4c(C)csc34)CC2)cc1	-21.1
CCCC(C)C(=O)Nc1ccc(C(N)=O)cc1 (stereo not drawn)	5.3
CCn1c2ccccc2c2cc(NC(=O)CSc3nnc(C4CC4)n3Cc3ccco3)ccc21	6.81
COc1ccc(C(=O)N/N=C(\C)c2ccc(NC(=O)Cc3ccccc3)cc2)c(OC)c1	-2.17
O=[N+]([O-])C1=CC=C2C(=NC3(CCCCC3)N2O)C1=NCCO	-0.0914
COc1ccc(S(=O)(=O)N2CCN(CCC(=O)Nc3ccccc3F)CC2)cc1	-0.0172
CCc1nccn1S(=O)(=O)c1ccc(OC)c(OC)c1	3.05
Cc1csc(NC(=O)c2ccc[nH]c2=O)n1	1.66
NC(=O)c1oc2ccc(Cl)cc2c1NC(=O)CN1CCOCC1	-9.08

SMILES	hERG current change (%, negative = inhibition) at 10uM [%]
O=C(CCCOc1ccccc1)Nc1cccc(S(=O)(=O)N2CCCCCC2)c1	-15.7
COCCN1Cc2cccc(C(=O)Nc3cccc(-c4nc5ccccc5[nH]4)c3)c2C1=O	-47.7
CCN(CC)c1ccc2cc(C(N)=O)c(=N)oc2c1	-58.5
Br.C/C(Sc1nnc(Cc2ccccc2)o1)=C(/O)c1ccccc1	-2.46
Cn1ccnc1SCC(=O)Nc1cccc(C(F)(F)F)c1	-0.393
CSc1ccccc1-c1nc(-c2ccncc2)no1	14.1
CCC(Sc1nc(-c2ccccc2)c(C#N)c(=O)[nH]1)C(=O)Nc1cc(C)on1 (stereo not drawn)	5.36
Cc1ccccc1NC(=O)Cc1nc(COC(=O)CCNS(=O)(=O)c2ccccc2)cs1	-14.4
O=C(Oc1ccc2c(c1)OCC2=O)c1ccccc1	14.1
CCOC(=O)C(C)(C)Sc1nc2c(cnn2-c2ccc(Cl)cc2)c(=O)[nH]1	-41.1
CCOc1ccc2c(c1)c1nnc(SCC(=O)NC3CC3)nc1n2C	-17.4
O=C(CC1CCCC1)N1CCN(S(=O)(=O)c2ccc(F)cc2)CC1	-27.7
COc1cc(NC(=O)c2ccccc2)cc(OC)c1	3.8
Cl.OC(CN1C2=NCCCN2c2ccccc21)c1ccc(Br)cc1 (stereo not drawn)	-83.9
CC1Cc2nc(SCC(=O)N3CCOCC3)n(C)c(=O)c2S1 (stereo not drawn)	8
Cn1c(C(=O)OCC(=O)NCc2cccs2)cc2sccc21	3.37
O=C(Nc1ccnn1C1CCN(Cc2ccc(Cl)cc2)CC1)C1CCCC1	-63.6
COc1ccccc1NC(=O)C1=C(C)Nc2nnnn2C1c1cccc(C)c1 (stereo not drawn)	-2.36
COc1cc(/C=N/NC(=O)c2nonc2N)cc(OC)c1OC	15.5
O=C(CN1CCCCC1)Nc1ccc(Br)cc1C(=O)c1ccccc1Cl	8.71
CCn1c(SCC(=O)NNC(=O)c2ccco2)nnc1-c1ccco1	18.4
CC(C)C(=O)N1CCc2cc(-c3csc(N)n3)ccc21	5.2
CC(C)(C)OC(=O)N[C@@H](Cc1ccccc1)C(=O)NCC1CCC(C(=O)O)CC1 (stereo partly drawn)	13.1

SMILES	hERG current change (%, negative = inhibition) at 10uM [%]
CCCNC(=O)C(Cc1ccccc1)NC(=O)c1ccc(C(F)(F)F)cc1 (stereo not drawn)	9.48
S=C(Nc1ccccc1)Nc1nccs1	24.4
O=C(c1cccc(Cl)c1)N1CCC(=O)N(C(CO)Cc2ccccc2)CC1 (stereo not drawn)	6.58
Cc1c(NC(=O)c2ccccc2NS(=O)(=O)c2ccc(F)cc2)c(=O)n(-c2ccccc2)n1C	7.8
O=C(COc1ccc(Cl)cc1)NCCNC(=O)c1ccccn1	-7.45
C/C(=N\Nc1nc2c(s1)CCCC2)c1ccccc1.Cl	-17.7
OCC[C@H]1C[C@H](O)[C@@H](O)[C@]2(CCCc3ccccc3O2)O1	0.151
Cl.OC(COc1ccc(Cl)cc1)CN1C2=NCCCN2c2ccccc21 (stereo not drawn)	-76.3
Cc1n(Cc2ccccc2)c2ccccc2[n+]1Cc1ccccc1.[Cl-]	-1.19
Cc1ccc(CSC2=Nc3sccc3C3=NC(=O)CN23)cc1	-19.1
Cc1ccc(C(=O)N2CCN(c3ccc(N4CCOCC4)nn3)CC2)cc1	-18.1
CC(C)NC(=O)c1ccc(NC(=O)CC2SC(N3CCCC3)=NC2=O)cc1 (stereo not drawn)	2.2
CCOC(=O)c1ccccc1NC(=O)CSc1nnnn1C	-11.3
CC(C)(C)c1ccc(OCCOCCn2cnc3ccccc3c2=O)cc1	-36.8
Cc1cc2nnc(SCC(=O)N3C(C)CCCC3C)n2c(N)n1 (stereo not drawn)	4.24
COc1ccc(C(c2nnnn2Cc2ccccc2)N2CCN(C(=O)c3ccco3)CC2)cc1 (stereo not drawn)	-60.6
CC(C)Oc1ccc(C(=O)NCCNC(=O)c2ccco2)cc1	-13.2
Nc1nnc(N)c2ccccc12	41.6
COc1ccc(NC(=O)Cn2nnc(-c3ccc(CN4CCOCC4)cc3)n2)c(OC)c1	-13.7
Cl.O=C(COc1ccc(Cl)cc1)N1CCN(Cc2ccc3c(c2)OCO3)CC1	-48.2
COc1ccc(CCNC(=O)C(=O)NCC2OCCN2S(=O)(=O)c2cccs2)cc1 (stereo not drawn)	-5.53
